# PubChem BioAssay AID485344 (National Center for Advancing Translational Sciences (NCATS), 2010)
# Several values for one entry are separate records, joined by “and”; a condition that tells them apart may be missing. Equal entries are not always repeated. Hit rate of the full screen: of about 340,000 compounds, about 6,900 (2%) were called active. No stated cut-off is given here; in the data, active means inhibition above about 30%; inactive means below that, where a call was filed. Only a part is listed here, and it is no random draw. Entries without a call were filed so in the source.
# Target: D(2) dopamine receptor (Homo sapiens) (UniProt P14416)
# Experiment: HTS Assay for Allosteric Antagonists of the Human D2 Dopamine Receptor: Primary Screen for Antagonists; further: 0% is about no effect
# Conditions: HEK293 TREx D2 cells, calcium flux, dopamine EC80; at 10 µM; stronger effect = higher value
# Method in brief: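 Calcium mobilization kinetics were recorded at 1 s intervals in tetracycline-induced HEK293 T-REx D2 cells, first for 180 s after compound addition and then 180 s after EC80 dopamine.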
# Sequence of UniProt P14416 (P14416 whole entry, looked up): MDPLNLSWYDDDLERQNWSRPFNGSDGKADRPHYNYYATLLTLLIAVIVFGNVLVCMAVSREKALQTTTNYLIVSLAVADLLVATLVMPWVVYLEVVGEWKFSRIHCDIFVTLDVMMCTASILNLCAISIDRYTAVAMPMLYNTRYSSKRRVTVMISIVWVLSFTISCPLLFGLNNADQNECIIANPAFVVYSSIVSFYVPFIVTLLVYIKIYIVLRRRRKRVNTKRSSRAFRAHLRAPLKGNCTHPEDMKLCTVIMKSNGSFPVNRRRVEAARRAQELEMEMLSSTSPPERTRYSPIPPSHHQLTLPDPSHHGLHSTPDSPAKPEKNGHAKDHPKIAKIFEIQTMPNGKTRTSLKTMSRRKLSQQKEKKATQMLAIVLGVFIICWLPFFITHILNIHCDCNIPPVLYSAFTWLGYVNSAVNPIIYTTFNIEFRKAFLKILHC
row,Structure (SMILES),inhibition
1,CC(C)(C)c1ccc(C(=O)NCC(c2cccs2)S(=O)(=O)c2cccs2)cc1 (stereo not given),-9.17%
2,N#Cc1ccsc1NC(=O)CN1CCN(c2ccccn2)CC1,active: 30.8%
3,Cc1cccc(C)c1NC(=O)Cn1c(=O)n(Cc2ccc3c(c2)OCO3)c(=O)c2oc3ccccc3c21,-0.325%
4,CCOc1cc(C(=O)Nc2ccc(-c3nc4ccccc4s3)cc2Cl)cc(OCC)c1OCC,20.2%
5,CCOc1ccc(OCC)c(NC(=O)C(NS(=O)(=O)c2cccs2)c2ccccc2)c1 (stereo not given),17.8%
6,COc1ccc(C(=O)Nc2cc(S(=O)(=O)c3ccc(Cl)cc3)c(O)c(C)c2C)cc1,4.18%
7,O=C(Nc1ccc(Br)cc1)C(Cc1ccccc1)NS(=O)(=O)c1cccc2nsnc12 (stereo not given),-7.61%
8,O=C(Cc1ccc(F)cc1)NCCS(=O)(=O)N1CCN(c2ccccc2)CC1,active: 46%
9,Cc1nn(CCCC(=O)NCc2ccccc2)c(=O)c2cc3sccc3n12,-0.237%
10,CC(C)(C)OC(=O)N1CCC(c2c(C(=O)NCc3ccco3)cnn2-c2ccccc2Cl)CC1,6.02%
11,COC(=O)c1ccccc1NS(=O)(=O)c1ccc2c(c1)CCCN2C(C)=O,0.127%
12,CC(=O)c1cc(-c2ccccc2)n(CCC(=O)NC(C)c2ccccc2)c1C (stereo not given),-19.3%
13,CCCC(=O)n1nc(-c2cccnc2)nc1NCc1ccc(OC)cc1,-5.55%
14,O=C(CNC(=O)C(c1ccccc1)c1ccccc1)N/N=C\c1ccc2c(c1)OCO2,active: 34.6%
15,COc1cc(CN2CCc3nc(N4CCN(c5ccccn5)CC4)ncc3C2)cc(OC)c1OC,6.9%
16,O=C(Nc1ccc(Cl)cc1C(F)(F)F)c1cc(S(=O)(=O)N2CCOCC2)ccc1F,23.1%
17,Cc1cccc(C(=O)Nc2ccc(S(=O)(=O)N3CCC(c4nc5ccccc5s4)CC3)cc2)c1,21%
18,CC(=O)c1c(C)c[nH]c1C,active: 31.1%
19,COCCCNC(=O)c1cc2cc(S(=O)(=O)N3CCCCC3)ccc2n1C,-15.4%
20,Cc1cc(C)c(NC(=O)CSc2ncc3c(n2)-c2cc(Cl)ccc2N(C)S3(=O)=O)c(C)c1,-7.16%
21,C=Cc1ccc(Cn2c(C(=O)O)c(CNCc3ccc(F)cc3)c3ccc(C)cc32)cc1,4.49%
22,CCC(C)(C)NC(=O)C1CCN(S(=O)(=O)c2ccc3c(c2)CCCN3C(C)=O)CC1,-2.37%
23,CCN(CC)S(=O)(=O)c1ccc2c(c1)N(CC(=O)Nc1ccccc1F)C(=O)C1CCCN21 (stereo not given),-11.5%
24,CCCNC(=O)Cn1c(=O)n(CC2CCC(C(=O)NC)CC2)c(=O)c2sccc21 (stereo not given),5.39%

row,Structure (SMILES),inhibition
1,CC(C)(C)c1ccc(/C=C/C(=O)Nc2ccc(S(N)(=O)=O)cc2)cc1,14.7%
2,O=C1CS(=O)(=O)C2(C(=O)N(Cc3ccccc3Cl)c3ccccc32)N1c1ccc(F)cc1 (stereo not given),9.31%
3,COc1ccc(Cn2c(C(=O)O)c(CNCCc3ccco3)c3ccc(OC)cc32)cc1,4.96%
4,Cc1ccc(NC(=O)/C(C#N)=C/c2ccc(-c3ccc(Cl)c(C(=O)O)c3)o2)cc1C,-8.52%
5,CCOc1ccc(CCNC(=O)c2cc3cccc4c3n2CCS4)cc1,6.93%
6,COc1cccc(NC(=O)C2CCCN(S(=O)(=O)c3cn(C(C)C)cn3)C2)c1 (stereo not given),-11%
7,COC(=O)c1c(-c2ccc(Cl)cc2)noc1N1CCN(c2cc(C)ccc2C)CC1,-13.7%
8,COc1ccc(N2CCN(c3ncnc4c3cnn4C)CC2)cc1,9.25%
9,CCCC(=O)N(c1ccc2oc(C)c(C(C)=O)c2c1)S(=O)(=O)c1ccc(CC)cc1,-5.69%
10,Brc1cccc(-c2nnn3c2nc(NCc2ccc4c(c2)OCO4)c2ccccc23)c1,13.5%
11,O=C(NCC(c1cccnc1)N1CCc2ccccc21)c1cccc(Br)c1 (stereo not given),-7.17%
12,CC(C)NC(=O)C1CCC(Cn2c(=O)c3sccc3n(Cc3ccc(F)cc3)c2=O)CC1 (stereo not given),-0.402%
13,COc1ccc(-n2ncc(C(=O)NCc3ccco3)c2C2CCN(C(=O)OC(C)(C)C)CC2)cc1,2.64%
14,COc1cc2ccccc2cc1C(=O)Nc1cccc(-c2nc3cc(C)c(C)cc3o2)c1,0.595%
15,Cc1ccccc1CNC(=O)c1cnc2sc(N3CCC(C)CC3)nn2c1=O,-1.12%
16,COC(=O)c1c(NC(=O)c2ccc(S(=O)(=O)N3CCC(C)CC3)cc2)sc2c1CCN(C)C2,-26.1%
17,Cc1cc(C)c(NC(=O)C2CCN(c3nc4ccccc4n4cccc34)CC2)c(C)c1,-19.6%
18,CCOC(=O)C1CCN(c2ncnc3c2nc2n3CCCCC2)CC1,-10.8%
19,Cc1cccc(C(=O)NCC(c2ccco2)S(=O)(=O)c2cccs2)c1 (stereo not given),26.1%
20,Cc1cccc(NC(=O)c2ccc(-c3ccccc3)s2)c1,0.998%
21,CCC(Oc1ccccc1)C(=O)Nc1nnc(S(=O)(=O)N(CC)CC)s1 (stereo not given),-1.65%
22,CCc1ccc(NC(=O)c2cnn(-c3ccccc3)c2-n2cccc2)cc1,8.65%
23,O=C(CC1N=C2c3ccccc3N=C(SCc3ccc(F)cc3)N2C1=O)NCc1ccc2c(c1)OCO2 (stereo not given),-25.8%
24,Cc1ccc(NC(=O)CSc2nnc3ccc4ccccc4n23)cc1,-17.9%

row,Structure (SMILES),inhibition
1,CCc1ccc(NC(=O)c2ccc(-c3ccccc3)s2)cc1,2.41%
2,O=C(NCCN1CCN(c2cccc(Cl)c2)CC1)Nc1ccccc1,19.7%
3,COc1cc2c(C(=O)Nc3cc(OC)c(OC)c(OC)c3)cn(C)c(=O)c2cc1OC,0.376%
4,CC(C)c1ccc(S(=O)(=O)c2nnn3c2nc(N2CCCC2)c2sccc23)cc1,-4.17%
5,Cc1cccc(Cn2c(=O)n3nc(-c4ccccc4)nc3c3ccccc32)c1,-5.82%
6,CCCC(=O)Nc1nnc(S(=O)(=O)N(C)Cc2ccc(Cl)cc2)s1,-10.7%
7,COc1ccc(C2c3cc(OC)c(OC)cc3CC(=O)N2c2ccc(C)cc2)cc1 (stereo not given),10.2%
8,Cn1c(=O)[nH]c2cc(-c3noc(-c4ccc(Br)cc4)n3)ccc21,-0.332%
9,Cc1cccc(-c2nn3c(=O)cc(CN4CCN(C(=O)/C=C/c5ccccc5)CC4)nc3s2)c1,5.59%
10,O=C1Nc2ccccc2Oc2cc(Oc3ccccc3)ccc21,1.43%
11,CCOC(=O)C1(c2csc(N)n2)COC(=O)C1 (stereo not given),active: 43.7%
12,Cc1ccc(C(=O)NCC(C)(C)O)cc1,active: 37.5%
13,COc1ccc(NC(=O)c2sc3nc4c(cc3c2N)CN(Cc2ccccc2)CC4)c(OC)c1,14%
14,Cc1ccc(C)c(CN2C(=O)c3ccccc3S(=O)(=O)c3ccc(C(=O)OCC4CCCO4)cc32)c1 (stereo not given),-16.1%
15,COc1ccc(NC(=O)Cn2c(SCc3ccc(C)cc3)nc3cccnc32)cc1OC,-1.79%
16,COc1ccc(-c2c(C#N)c(SCC(=O)Nc3ccccc3C)nc(C)c2C(=O)Nc2ccc(Cl)cc2)cc1,-6.72%
17,CN(c1ccccc1)S(=O)(=O)c1ccc(NC(=O)c2nc(S(C)(=O)=O)ncc2Cl)cc1,25.9%
18,CCN1CCN(CCNC(=O)c2ccc3c(c2)N(Cc2ccc(F)cc2)C(=O)c2ccccc2S3=O)CC1 (stereo not given),active: 55%
19,COC(=O)c1c(NC(=O)CCCOc2cccc(C)c2)sc2c1CCC2,-1.66%
20,O=C(CSc1nc(C2CCCCC2)nc2ccccc12)NCc1ccco1,active: 66.7%
21,Cc1cc(C)n(-c2nnc(Nc3ccc(C)c(C)c3)c3ccccc23)n1,2.79%
22,CCOC(=O)c1cc(S(=O)(=O)Nc2cc(OC)ccc2OC)[nH]n1,-5.79%
23,Cc1ccc(C(=O)NCC(c2ccc3c(c2)OCO3)N2CCOCC2)cc1C (stereo not given),26.6%
24,COc1ccc(CNc2nc(-c3ccco3)nn2S(=O)(=O)c2ccc(Cl)cc2)cc1OC,-2.86%

row,Structure (SMILES),inhibition
1,COc1ccc(Cl)cc1NC(=O)c1cc2c(=O)n3ccccc3nc2s1,-19.2%
2,O=C(CSc1cn(CC(=O)N2CCCC2)c2ccccc12)Nc1ccc(Cl)cc1,-15.2%
3,CCN(CC)CCn1c(NC(=O)c2ccc(C(F)(F)F)cc2)nc2ccccc21,active: 88.3%
4,CCC(CNc1cc(OC)cc2cccnc12)NC1CCCCC1 (stereo not given),active: 47.1%
5,Cc1cccc(NC(=O)Cn2cc(C(=O)C3CCCCC3)c3ccccc32)c1,-1.54%
6,COc1cccc(CNC(=O)c2cnc3sc(N4CCCC4)nn3c2=O)c1OC,-14.7%
7,CCOC(=O)COc1ccc(C2C(C(=O)OC)=C(C)NC3=C2C(=O)c2ccccc23)cc1Cl (stereo not given),12.8%
8,COc1cc2c(-c3cccc(Cl)c3)nc3c(c(C)nn3-c3ccccc3)c2cc1OC,23.4%
9,COc1ccc(Cn2c(CCC(=O)NCc3ccc(Cl)cc3)nc3cccnc32)cc1,9.9%
10,CCOC(=O)CC(NC(=O)CCc1c(C)nc2c(-c3ccccc3)c(C)nn2c1C)c1ccc(OC(C)C)cc1 (stereo not given),-8.86%
11,CSc1ccc(CCNC(=O)NCc2noc3ccccc23)cc1,-6.02%
12,COc1cccc2sc(N(Cc3cccnc3)C(=O)c3ccc4c(c3)OCCO4)nc12,6%
13,CC(NC(=O)C1CCN(S(=O)(=O)Cc2ccccc2)CC1)c1ccccc1 (stereo not given),-12.6%
14,COc1ccc(C2NC(=O)N(C)C3=C2C(=O)N(c2ccc(Br)cc2)C3)cc1 (stereo not given),9.63%
15,CN(C)c1ccc(CNC(=O)C2CCN(c3nc4ccccc4[nH]3)CC2)cc1,7.26%
16,CCCc1nn2c(=O)cc(COC(=O)c3ccc(NC(=O)COc4ccc(F)cc4)cc3)nc2s1,2.4%
17,Cc1cc(S(=O)(=O)N2CCN(Cc3noc(CCC(=O)N4CCCCC4)n3)CC2)ccc1F,5.97%
18,COC(=O)c1cc2occc2n1Cc1nc(-c2ccccc2)oc1C,6.61%
19,CC(C)c1ccc(S(=O)(=O)N2CCC(n3c(C(F)(F)F)nc4cccnc43)CC2)cc1,9.94%
20,COc1ccc(NC(=O)C2CCN(S(=O)(=O)c3cccc(-c4noc(C)n4)c3)CC2)cc1OC,-17.1%
21,CCOC(=O)c1oc2ccc(S(=O)(=O)n3nc(-c4ccc(C)cc4)cc3N)cc2c1C,active: 34.6% and -7.8%
22,CCOCCn1ccc2c(OCC(=O)Nc3ccc(C(N)=O)cc3)cccc2c1=O,-22.3%
23,CC(C)c1ccc(CN(C(=O)c2cc3ccccc3oc2=O)C2CCS(=O)(=O)C2)cc1 (stereo not given),4.68%
